Measurements from the supplement of paper PMC10126150.
Values marked as one replicate rest on one cluster of the flow cell; about a third of the high ones do not repeat.
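Further: ATP exposure 15 min at 22 °C before imaging.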

These sequences were tested on ATP (assay: switch fluorescence ratio, 500 uM ATP over buffer (Cy3 cluster intensity, sum of 5 cycles each) (fold (ratio)); higher = stronger signal-on switching upon ATP binding; sequences stand for … in TCGTCGGCAGCGTCAGATGTGTATAAGAGACAGTTTTTTTTTTTTTTTTTTTTTTTTT…TC). Details: aptamer strand: ATP DNA aptamer (quencher-CACCTGGGGGAGTATTGCGGAGGAAGG + anchor), 100 nM annealed; ATP concentration: 500 uM; one replicate.
How it was run: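 Per cluster, summed Cy3 intensity from the target cycles was divided by that from the buffer cycles to give the fluorescence ratio, then averaged per switch-domain sequence. Clusters outside 100-1000 RFU were excluded. The Cy3-labelled switching-strand clusters, on a modified Illumina MiSeq flow-cell, were annealed to 100 nM quencher-labelled ATP aptamer and imaged in selection buffer, then after 15 min with 500 uM ATP at 22 °C, for five cycles with NaOH stripping and re-annealing between them.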
GTTGGATGAA gave a switch fluorescence ratio of 0.974.
With GTTGGCCGCT the switch fluorescence ratio was 1.01.
Sequence GTTGGGATGC has a switch fluorescence ratio of 1.02.
Sequence GTTGGGGCCC has a switch fluorescence ratio of 1.01.
GTTGGGTGTT showed a switch fluorescence ratio of 0.998.
In the case of GTTGGGTTTA, the switch fluorescence ratio is reported as 1.01.
Work on GTTGGTAGTC yielded a switch fluorescence ratio of 0.976.
GTTGTACGAC showed a switch fluorescence ratio of 1.04.
GTTGTAGATT showed a switch fluorescence ratio of 0.962.
GTTGTCATGG was tested, and the switch fluorescence ratio was 0.972.
GTTGTCGCGA gave a switch fluorescence ratio of 1.04.
GTTGTCTCCG gave a switch fluorescence ratio of 1.02.
For GTTGTCTCGT, the switch fluorescence ratio was 1.04.
GTTGTGATTG was tested, and the switch fluorescence ratio was 1.02.
GTTGTGCCGG was tested, and the switch fluorescence ratio was 1.09.
With GTTTAAGCTT the switch fluorescence ratio was 1.02.
GTTTAGCCCT was tested, and the switch fluorescence ratio was 0.998.
Work on GTTTCATCGT yielded a switch fluorescence ratio of 1.
For GTTTCCTTTG, the switch fluorescence ratio was 1.07.
For GTTTCGGGGC, the switch fluorescence ratio was 0.977.
GTTTCTCAG gave a switch fluorescence ratio of 0.987.
GTTTGAACAT showed a switch fluorescence ratio of 1.01.
With GTTTGACATC the switch fluorescence ratio was 1.04.
Work on GTTTGACGGG yielded a switch fluorescence ratio of 0.994.
Sequence GTTTGAGAAG has a switch fluorescence ratio of 1.01.
GTTTGCCGAT showed a switch fluorescence ratio of 0.995.
Work on GTTTGGGAGA yielded a switch fluorescence ratio of 0.941.
Sequence GTTTGGGCGT has a switch fluorescence ratio of 1.03.
Sequence GTTTGTTAA has a switch fluorescence ratio of 1.04.
Sequence GTTTTAACTA has a switch fluorescence ratio of 1.02.
GTTTTACAT was tested, and the switch fluorescence ratio was 1.01.
For GTTTTATCAT, the switch fluorescence ratio was 1.01.
GTTTTCAGCT gave a switch fluorescence ratio of 0.963.
In the case of GTTTTCGAAA, the switch fluorescence ratio is reported as 1.05.
GTTTTCGCTG was tested, and the switch fluorescence ratio was 0.973.
Sequence GTTTTTCCCA has a switch fluorescence ratio of 1.02.
In the case of TAAAAAAACA, the switch fluorescence ratio is reported as 0.991.
For TAAAAAAAGT, the switch fluorescence ratio was 1.01.
TAAAAAAGCT was tested, and the switch fluorescence ratio was 1.03.
Work on TAAAAATCGG yielded a switch fluorescence ratio of 0.999.
Sequence TAAAAATTCC has a switch fluorescence ratio of 1.1.
With TAAAACCGTA the switch fluorescence ratio was 1.1.
Sequence TAAAACGTCG has a switch fluorescence ratio of 1.01.
With TAAAACTTAT the switch fluorescence ratio was 1.05.
Work on TAAAAGCGAT yielded a switch fluorescence ratio of 1.
Sequence TAAAATTCAG has a switch fluorescence ratio of 0.993.
Sequence TAAACATCTC has a switch fluorescence ratio of 1.02.
TAAACCCATG was tested, and the switch fluorescence ratio was 1.01.
TAAACCCGTT was tested, and the switch fluorescence ratio was 1.07.
With TAAACCGCGT the switch fluorescence ratio was 1.09.
TAAACCGTGT gave a switch fluorescence ratio of 0.991.
In the case of TAAACGAGCA, the switch fluorescence ratio is reported as 1.06.
In the case of TAAACGATGT, the switch fluorescence ratio is reported as 1.01.
TAAACGTTTA showed a switch fluorescence ratio of 1.01.
With TAAAGACGTG the switch fluorescence ratio was 1.03.
TAAAGACGTT showed a switch fluorescence ratio of 0.997.
In the case of TAAAGCCAGC, the switch fluorescence ratio is reported as 0.95.
Work on TAAAGCCGAA yielded a switch fluorescence ratio of 1.01.
TAAAGCCTCT gave a switch fluorescence ratio of 1.03.
TAAAGGATGT gave a switch fluorescence ratio of 1.03.
In the case of TAAAGGGCGC, the switch fluorescence ratio is reported as 0.971.
TAAAGTAAGG gave a switch fluorescence ratio of 0.993.
Work on TAAAGTCATC yielded a switch fluorescence ratio of 1.
Work on TAAAGTTGTG yielded a switch fluorescence ratio of 0.956.
In the case of TAAATAATGA, the switch fluorescence ratio is reported as 1.01.
For TAAATAGCAA, the switch fluorescence ratio was 1.46.
With TAAATAGGAG the switch fluorescence ratio was 1.03.
TAAATCGCGT showed a switch fluorescence ratio of 0.999.
TAAATCGCTC was tested, and the switch fluorescence ratio was 1.
Work on TAAATCGTCA yielded a switch fluorescence ratio of 0.994.
TAAATGGAG showed a switch fluorescence ratio of 0.983.
For TAAATGGGG, the switch fluorescence ratio was 1.
TAAATTAACC was tested, and the switch fluorescence ratio was 1.07.
Work on TAAATTATCC yielded a switch fluorescence ratio of 0.972.
Sequence TAAATTCGAG has a switch fluorescence ratio of 1.01.
TAACAAAAAA gave a switch fluorescence ratio of 0.958.
